The values that follow come from the RNAGym collection of RNA variant scans (doi:10.1101/gad.245936.114).

Sequences and labels used below:
B1: tRNA (parent)
chain: CUCUCGGUAGCCAAGUUGGUUUAAGGCGCAAGACUUUAAUUUAUCACUACGAAAUCUUGAGAUCGGGCGUUCGACUCGCCCCCGGGAGAUUUUUUCCUCGAGCAA

This sample is rich in variants without activity. Bounds are passed on as bounds.

In the series the parent is B1. As to the kind of experiment: nonsense suppression (GFP-seq) (ratio to wild type); higher = more function; SUP4oc tRNA, yeast GFP reporter sort-seq. The method in brief: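 Yeast carrying genome-integrated SUP4oc tRNA variants from a library with ~3% random mutations were grown in raffinose/galactose medium with 80 mg/L adenine. Each strain also carried a galactose-driven GFP ochre reporter and RFP. Cells were sorted into GFP/RFP bins, and each bin was Illumina-sequenced (phred ≥30). Nonsense suppression (GFPSEQ) is the bin median GFP/RFP, weighted by each variant's estimated cell share per bin, relative to wild-type SUP4oc; variants needed ≥100 reads and ≥30 cells.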
Take G7C G15C U71C: the nonsense suppression was at most 0.026. Then U16G G25U G67A C81G, with at most 0.026. Then A9C G84A, with at most 0.026; and C29U A31G, with 0.0421; and A30C G32C G67U C72A, with at most 0.026. Take U57A U76C A87C: the nonsense suppression was at most 0.026.

For the variant C1U A14G G19U C29U A62G U76A, the nonsense suppression was at most 0.026.

As for G10U G28U U35A G59C A60U, the nonsense suppression is at most 0.026.

Regarding C5A A14U G69C U71A G73C C81A, the nonsense suppression was at most 0.026. Next, G18A G66U C75A: at most 0.026; G10U G28U: at most 0.026. Then A13G U35A, with at most 0.026; and G73C C77G, with at most 0.026; and G10U C34U U57C G88U, with at most 0.026. Consider U70A U76C C83U, for which the nonsense suppression was at most 0.026. With U2G C77G, the nonsense suppression is at most 0.026.

Take A74C: the nonsense suppression is at most 0.026.

With C3G G28U A33G A60U C64U, the nonsense suppression was at most 0.026. Regarding C11U G32U, the nonsense suppression was at most 0.026. Next, C3G C11A C81G: at most 0.026. Regarding C1U C5U A14G A89U, the nonsense suppression is at most 0.026. Next, A9G G10U U35C A54C U57A G84C: at most 0.026; C11A A13U A24G A54C C80U: at most 0.026; U55A C80G C83G: at most 0.026. As to C68G C80G, the nonsense suppression is at most 0.026. Consider C12U A14G A23C C72U U76A, for which the nonsense suppression is at most 0.026. Turning to U20C A23U C34U G61U, the nonsense suppression was at most 0.026. Then C11A A24C G28A, with at most 0.026; and U17A C27A C77U A87G G88C, with at most 0.026; and G7U A60G C81A A89G, with at most 0.026. Next, G28U G86C A89C: at most 0.026. Then A54U U58G A74C G84C, with at most 0.026; and U4C G6A U57G C81U C83U, with at most 0.026. Take C3U G19A G69U C81A: the nonsense suppression is at most 0.026. Next, U63G G66U: at most 0.026; A31C A60C: at most 0.026; C80G: at most 0.026. Then G25A G28U C83A G84C G86A, with at most 0.026; and A62C G88C, with at most 0.026. On to C11A U21C, for which the nonsense suppression is at most 0.026. Then U17A G18C C64G G69A U70G, with at most 0.026; and C1G C83A, with at most 0.026. Then C64A C79G, with at most 0.026; and G15C G25U A54U, with at most 0.026; and U22A A24U C64U, with at most 0.026. Next, A9G G25C U57C: at most 0.026; C11G G65U: at most 0.026. As to U8C C11G G59A, the nonsense suppression is at most 0.026. Then U17A G65U G69A C75A, with at most 0.026; and A9U U20C A30C U71G, with at most 0.026. Then U2G C5G A33G, with at most 0.026; and A23U C34A, with at most 0.026; and G25C C81A, with at most 0.026.

Regarding U8G U16A, the nonsense suppression is at most 0.026. Then C5U A13U U58A G65U, with at most 0.026; and C27U C29U C64A G84A A87C, with at most 0.026.

In the case of U16G C83U, the nonsense suppression stood at 0.223. Next, C34U G59A C83G: at most 0.026; C1A A23C: at most 0.026. Take G26A U58G A62G G66C U71C: the nonsense suppression is at most 0.026.

Regarding U8A U16C A23U C82A, the nonsense suppression was at most 0.026.

As to G25C U55G C72G C82G, the nonsense suppression is at most 0.026. Then A14U U55C A60U A89U, with at most 0.026. Then A31U A62C U63C, with at most 0.026. As for G10C A62G, the nonsense suppression is at most 0.026. As for G10C C82A, the nonsense suppression is at most 0.026.

On to A23G U57A U58G G61U, for which the nonsense suppression was at most 0.026. Next, A74G G78U C82G: at most 0.026; U4A C64U G65C C81G A87U: at most 0.026. Then G10C G69C U71G, with at most 0.026; and C3A A23G A30G C56U G84A, with at most 0.026. Next, U4C A14G: at most 0.026. For the variant G32C G69A C80G A87U, the nonsense suppression was at most 0.026. Then C64G U76A, with at most 0.026. Turning to C5U U16C C64A G69U, the nonsense suppression was at most 0.026. Next, G7U G65C A89C: at most 0.026; U4A G7U G15A U21A: at most 0.026. On to C29G A89U, for which the nonsense suppression is at most 0.026. Then G7C G19A, with at most 0.026; and C5G U8A C11G U55C, with at most 0.026. Then G10C C77G, with at most 0.026. Next, U17C A33G C64A G88A: at most 0.026; U4C A62G: at most 0.026; A9C U76C: 0.929. For the variant C5U C12A U76G, the nonsense suppression was at most 0.026.

Turning to U76G C79G, the nonsense suppression is at most 0.026. Then A62C G67U C75G, with at most 0.026; and C27G A30U G86C, with at most 0.026; and A23U G28C, with at most 0.026. For the variant U22A A33G C77A, the nonsense suppression is at most 0.026.

For U2C U21C G66U C77A, the nonsense suppression was at most 0.026. For C1A G6U U58G, the nonsense suppression is at most 0.026. Next, C56A C72A: at most 0.026; U16G A24C G26C G69U U76G C81A: at most 0.026.

On to U4G C12U G19U C68G C77A C82A, for which the nonsense suppression was at most 0.026. As for G10A C27G U57A, the nonsense suppression is at most 0.026. As to C68A U76C G88A, the nonsense suppression is at most 0.026. Then C1U C27G A30U, with at most 0.026; and U17G C29U C68G, with at most 0.026; and A14G U17G C82G, with at most 0.026. Next, C12U A31G C77G: at most 0.026; U8G U20A U70C A74C: at most 0.026; A54U A87C: at most 0.026. Then U8A G26C C81U, with at most 0.026; and G7A A13C A14C U16G C34G A54C U55A U63C G84U, with at most 0.026; and U58C A60C, with 0.0568. Regarding C1G G26A A33U C64U U70C, the nonsense suppression was at most 0.026. Then U2A A30G, with at most 0.026. In the case of A62U G67A, the nonsense suppression is at most 0.026. Then C11G A23U G28C, with at most 0.026. Next, U70A G73C: at most 0.026; A9G C11G A30C C34G: at most 0.026; G10A A60C G66C G78A: at most 0.026. In the case of A9G U35A A60U G66A C83G G85U, the nonsense suppression is at most 0.026. G73U C75G: the nonsense suppression was at most 0.026. In the case of G19A U35C A54G, the nonsense suppression was at most 0.026. Then U8G A13C G28C C64U U70A C72G G84U, with at most 0.026; and C5A G15U A24G, with at most 0.026.

In the case of G19U G59C A87U, the nonsense suppression is at most 0.026. Next, A13U A14U A23U U76G: at most 0.026.

Consider C1A C11U G69A A89C, for which the nonsense suppression was at most 0.026. Next, A23C A31C G86A: at most 0.026; U22C G32C U55A G69C G85C: at most 0.026.

As for A60G G66A C83G, the nonsense suppression was at most 0.026. Next, G10A G84U: at most 0.026. Then C3U G18U G32C, with at most 0.026; and U2A G69U, with at most 0.026; and C34G, with at most 0.026. Turning to G25U C68G, the nonsense suppression is at most 0.026.

Turning to C11A G15C U17A G18U A62C A89C, the nonsense suppression is at most 0.026. In the case of U8G G61U, the nonsense suppression was at most 0.026. Next, U55A G73U: at most 0.026; U4G C27A: at most 0.026; U4A U22G G66A: at most 0.026. Then A14U C29G C80A, with at most 0.026; and G7C C68A U70A C72G C80G, with at most 0.026; and C27G A89C, with at most 0.026. Next, U4A U16A A24U U63A G78C: at most 0.026; A14C U16G U55C: at most 0.026. As to U35G G69U, the nonsense suppression was at most 0.026. As for A33C A54U U63A, the nonsense suppression was at most 0.026.

Take U2A A14G: the nonsense suppression was at most 0.026. Then U58G C77A, with at most 0.026; and A9C C80G G88A, with at most 0.026. Then C34U G66C U71C, with at most 0.026; and C56A G88U, with at most 0.026; and U2C C27A G73C, with at most 0.026. Next, U2C A14U: at most 0.026; U17A G85C: at most 0.026. As to C12U A54G A62C, the nonsense suppression was at most 0.026. Then G7A A23G C29U A87G, with at most 0.026; and A31U G61C C77A, with at most 0.026. Next, C5G U35A C56A: at most 0.026; U2A G66U U76C: at most 0.026; U55C G66C: at most 0.026. Then C34U A60U A74C, with at most 0.026; and C1U G15A A89G, with at most 0.026. For A31U G59U C75G, the nonsense suppression is at most 0.026. Next, A33G U76G: at most 0.026; U4A U63C G78C G85A: at most 0.026. Next, A9G C56G G67U U71A G88A: at most 0.026; C1U C3U C64G G69U: at most 0.026. Next, G61C G67U A89U: at most 0.026; G7U A9G U35A G78U: at most 0.026. In the case of C1A U57A G86C, the nonsense suppression is at most 0.026. Next, A9C A87G: 0.649; C12A U16C C75A: at most 0.026.
